Assay results: a compilation of properties of binary mixtures (doi:10.1016/j.molliq.2014.09.055)
Some of these densities may be calculated back from excess volumes.

Assay: xn = mol fraction of the nth substance listed
Conditions: 101 kPa

CCOS(=O)(=O)[O-].CC[n+]1ccn(C)c1 + CC(=O)O
x2 = 0
Conditions	mass density [kg/m3]
293.15 K	1240.3
298.15 K	1236.9
303.15 K	1233.5

CCC(=O)O + CCOS(=O)(=O)[O-].CC[n+]1ccn(C)c1
mass density [kg/m3]
Conditions	293.15 K	298.15 K	303.15 K	308.15 K	313.15 K
x1 = 0.0818	–	1229.7	1226.3	1222.9	1219.4
x1 = 0.1678	1224.7	1221.2	1217.7	1214.2	1210.7
x1 = 0.2655	1213.7	–	1206.7	–	1199.6
x1 = 0.3539	1202.2	1198.6	1195	–	1187.9
x1 = 0.4224	1192.1	1188.4	1184.8	1181.2	1177.6
x1 = 0.5516	1168.9	1165.1	1161.4	1157.6	1153.9
x1 = 0.6556	1145.6	1141.8	1137.9	1134	1130.2
x1 = 0.7707	1112.6	1108.6	1104.5	1100.4	1096.4
x1 = 0.8774	1070.1	1065.7	1061.3	1056.9	–
x1 = 0.9405	1035.4	1030.6	1025.8	–	1016.2
x1 = 1	993.3	987.9	982.5	977.1	971.8

CC(=O)O + CCOS(=O)(=O)[O-].CC[n+]1ccn(C)c1
mass density [kg/m3]
Conditions	293.15 K	298.15 K	303.15 K	308.15 K	313.15 K
x1 = 0.0978	–	–	1228.4	1225	–
x1 = 0.1993	–	1225.7	1222.2	1218.7	1215.2
x1 = 0.308	1221.4	1217.9	1214.3	1210.8	1207.2
x1 = 0.4031	1212.9	–	1205.6	–	–
x1 = 0.4737	1205.4	1201.7	1198.1	1194.4	1190.7
x1 = 0.5975	1189	1185.2	1181.4	1177.6	–
x1 = 0.701	1171	1167	1163	1159.1	1155.1
x1 = 0.8057	–	–	–	1133.8	1129.6
x1 = 0.8973	1115.3	1110.7	–	1101.4	1096.8
x1 = 0.9512	–	1082.3	1077.3	1072.3	1067.2
x1 = 1	1049.8	–	1038.5	1032.8	1027.2

CCOS(=O)(=O)[O-].CC[n+]1ccn(C)c1 + CCC(=O)O
x2 = 0
Conditions	mass density [kg/m3]
293.15 K	1240.3
298.15 K	1236.9
